Source: paper PMC12136788
Some of the results follow.

B1: chr17:57974666:57974767:-|CDS|ENSG00000136451|msi1|total|mutant (ssRNA)
RNA: GGGAGUUCUACAGUCCGACGAUCGAGCAUGAGAAGUCCAGUAAAUGUUUCAAGUGCAGUUAACAUAACCAGCCCAAUGAACACCGGGCAUCCUGUAACUAUAACCAGUCCAUUAUCCAUGACCUCUCCUUUAACACUCACUACCAACAGAGGAUUGAGCAUCA
B2: chr12:114680981:114681101:-|CDS|ENSG00000135111|unk|total|mutant (ssRNA)
RNA: GGGAGUUCUACAGUCCGACGAUCUAAAGUGAGAUGUUCUGGGCUGGAUAAAAAAGCCAAAUACAUUUUAUUGAUGGACAUUACCGCUGCUGAUGACUGUCGUUAUAAAUUUCACAAUUCUCGGUGGAUGGUGGCUGGUAAGGCCAACAGAGGAUUGAGCAUCA
B3: chr1:32196777:32196878:+|3pUTR|ENSG00000084652|msi1|FALSE|unique (ssRNA)
RNA: GGGAGUUCUACAGUCCGACGAUCUUUGAAGCUAGUUCAUUGUCCUGCAGGUCCCUUCAUCUUCCAUACCUAGCCCACUCUUUUAGCCCUUACCUUAAAUCUCUCAGAUAAGUUGGUUCACAAAGAAUGUUAAGUACUGAAUCACAACAGAGGAUUGAGCAUCA
B4: chr3:52829118:52829279:-|CDS|ENSG00000055955|control|control|control (ssRNA)
RNA: GGGAGUUCUACAGUCCGACGAUCGUGGACUCCAGGGUCUCAUCCCGAUUUGCCCACACGGUCGUCACCAGCCGAGUGGUCAAUAGGGCCAAUACUGUGCAGGAGGCCACCUUCCAGAUGGAGCUGCCCAAGAAAGCCUUCAUCCAACAGAGGAUUGAGCAUCA
B5: chr7:139306712:139306813:+|3pUTR|ENSG00000157741|msi1|FALSE|bound_elsewhere (ssRNA)
RNA: GGGAGUUCUACAGUCCGACGAUCAUCUGGGGCUUGCCCUUGGAUUUCACUUGUUAAACACCCUCAAACUUAAAAGAAGAAAAUAGAUCUCCAGCUGGUGAAAAUUUUGUGCCCCAAAUAAUAUAUUAAUCCAAGUCUACCAAGCAACAGAGGAUUGAGCAUCA
B6: chr3:15254852:15254953:-|3pUTR|ENSG00000131370|msi1|total|mutant (ssRNA)
RNA: GGGAGUUCUACAGUCCGACGAUCAAACUGUUAAUUCUGUCACAGCCUGUAUAUUUCCGUCAUUUGUAAAUCUCUUCAUACAACCGUGACUUCUUUUUUGACUGAUACAGUAUCUUAAUUACAAGGUUAUUUUGUACUUGUCUUCAACAGAGGAUUGAGCAUCA
B7: chr1:16399343:16399521:-|CDS|ENSG00000187144|control|control|control (ssRNA)
RNA: GGGAGUUCUACAGUCCGACGAUCGCUCUGCCCACAGCUGGACAAGAAGAUGGUCCGUAGGCAGCCGAGCAACCACUAUGCACUAGACCAGUGCACACCCCCUGGCCUGGAUCCUGACAUCCGCAGCCCCUUCUUCCAGUCAGGCAACAGAGGAUUGAGCAUCA
B8: chr6:107870184:107870285:-|3pUTR|ENSG00000025796|msi1|total|mutant (ssRNA)
RNA: GGGAGUUCUACAGUCCGACGAUCUAAUAUUUCCUAUAAAAGGGUGAAAGCAGUUUCUUUCUCUAUAACCUCAAUCACCAGUUCCGUGAGAGCCUUUCUUGGCAGGCAGGAGGCAGUGUCACUGAGGAUUUUUUUCAUUUACUUCAACAGAGGAUUGAGCAUCA
B9: chr7:41961162:41961264:-|3pUTR|ENSG00000106571|unk|total|mutant (ssRNA)
RNA: GGGAGUUCUACAGUCCGACGAUCCCCUUGUGUAUCCUGCAGACAUGUAAAAUAAAAUACAAGUUCAUUUUUUUCACCUUUUUCCGAUUUUUUUAAAAAAUAAAAUGUGUAAUCCUUUUUUUAAAAGAAACACAUGUAAAUACACAACAGAGGAUUGAGCAUCA
B10: chr1:198253062:198253183:+|CDS|ENSG00000151414|unk|FALSE|unique (ssRNA)
RNA: GGGAGUUCUACAGUCCGACGAUCAUGGGCUAUAAUACAUUAGCCAACUUUCGAAUAGAAAAGAAAAUUGGUCGCGGACAAUUUAGUGAAGUUUAUAGAGCAGCCUGUCUCUUGGAUGGAGUACCAGUAGCUUUAAAAAAAGUGCAACAGAGGAUUGAGCAUCA
B11: ENSG00000198589:be:win_4951|CDS|ENSG00000198589|bound_else_gene|NA|bound_elsewhere_windowed (ssRNA)
RNA: GGGAGUUCUACAGUCCGACGAUCUCUCCGGAAACCAAAAAUGAUAGAGGAAAUGACUUGGACACUAAGGCUACACCGUCAGUUUCAGUUUCAAAAAACGUCAAUGUGAAAGACAUUCUCCGAAGCUUGGUUAACAUACCAGCACAACAGAGGAUUGAGCAUCA
B12: chr1:3780741:3780842:-|3pUTR|ENSG00000130764|unk|total|mutant (ssRNA)
RNA: GGGAGUUCUACAGUCCGACGAUCCCAAGCCGCUGGGACUACAGGUGUGUGCCACUAAGCUCAGCUAAUUUUUGUAUUUUCCGCCGAGACGGGGUUUCACCAUUUUGACCAGGAUGGUCUUGAUCUCUUGACCUCAUGAUCUGUCAACAGAGGAUUGAGCAUCA
B13: ENSG00000075711:stop:overlap|stop_codon|ENSG00000075711|stop_codon|NA|stop_codon (ssRNA)
RNA: GGGAGUUCUACAGUCCGACGAUCCAGAAAAAAUAAUGGAAAUAAAGCUCAUUAAAGGUCCUAAAGGUAUGUGGUCUUGGGUUUAGCAUUGCUGGAGGUGUUGGAAAUCAGCAUAUUCCUGGGGAUAAUAGCAUCUAUGUAACCCAACAGAGGAUUGAGCAUCA
B14: chr3:128462549:128463245:-|CDS|ENSG00000179407|control|control|control (ssRNA)
RNA: GGGAGUUCUACAGUCCGACGAUCCGGGAGUUUUUUGGUGGCCUGGACCCUUUCUCCUUUGAGUUCUGGGACAGCCCAUUCAAUAGUGACCGUGGUGGCCGGGGCCAUGGCCUGAGGGGGGCCUUCUCGGCAGGCUUUGGAGAACAACAGAGGAUUGAGCAUCA
B15: chr7:73831540:73831641:+|CDS|ENSG00000189143|msi1|total|mutant (ssRNA)
RNA: GGGAGUUCUACAGUCCGACGAUCCAAGGCCAAGACCAUGAUCGUGGCGGGCGUGGUGUUCCUGUUGGCCGGCCUUAUGGUGACCGUGCCGGUGUCCUGGACGGCCCACAACAUCAUCCAAGACUUCUACAAUCCGCUGGUGGCCAACAGAGGAUUGAGCAUCA
B16: ENSG00000124766:be:win_151|CDS|ENSG00000124766|bound_else_gene|NA|bound_elsewhere_windowed (ssRNA)
RNA: GGGAGUUCUACAGUCCGACGAUCUGGUGCAAGACCCCGAGUGGGCACAUCAAGCGACCCAUGAACGCCUUCAUGGUGUGGUCGCAGAUCGAGCGGCGCAAGAUCAUGGAGCAGUCGCCCGACAUGCACAACGCCGAGAUCUCCCAACAGAGGAUUGAGCAUCA
B17: ENSG00000111696:stop:overlap|stop_codon|ENSG00000111696|stop_codon|NA|stop_codon (ssRNA)
RNA: GGGAGUUCUACAGUCCGACGAUCCCUGGUCAGAAAGGCCCCCCACCUUCGGAACCCCUCUCCUGCAGGAGGCCCAGGCCAAGUAGCCAAGGGCAAAAACUAGAAACUGUAACUGCCCCUGAUUGGGCAGGCAUGAUGGGGUUGCAACAGAGGAUUGAGCAUCA
B18: ENSG00000198589:be:win_5451|CDS|ENSG00000198589|bound_else_gene|NA|bound_elsewhere_windowed (ssRNA)
RNA: GGGAGUUCUACAGUCCGACGAUCUUUUGCACCUUUUCUUUCUCGGACACUUUUGGGUAGCCAUGGACAAGAACUGCUUAUAGAAGGAACAAGUCUGGUUUGCAUGAAGUCGAGUAGUUCAGUUGUGGAAUUGGUUAUGCUACUCAACAGAGGAUUGAGCAUCA
B19: chr17:35724233:35724342:+|3pUTR|ENSG00000006125|msi1_unk|total|mutant (ssRNA)
RNA: GGGAGUUCUACAGUCCGACGAUCUCCUGGAGGCAGAGAUGCAGUUACCUACCCCCGCUUUUGAUGGGUUCUCUUACCUGCCGCCGCCUUAUCCCUGGUCAUUUGGAUUUUCAGUUUGCUUUUUUCUUUUUUUCCCCUCCAAACCAACAGAGGAUUGAGCAUCA
B20: chr12:95514132:95514176:+|3pUTR|ENSG00000111142|msi1_unk|FALSE|overlapping (ssRNA)
RNA: GGGAGUUCUACAGUCCGACGAUCCUUUUAAAUGCUAACUGUUUUUCCCCUUCCUGUCUAGGAAAAUGCUAUAAAGCUCAAAUUAGUUAGGAAUGACUUAUACGUUUUGUUUUGAAUACCUAAGAGAUACUUUUUGGAUAUUUACAACAGAGGAUUGAGCAUCA
B21: chr22:41177882:41177989:+|CDS|ENSG00000100393|unk|total|mutant (ssRNA)
RNA: GGGAGUUCUACAGUCCGACGAUCCAAAACCUUUUGCGGACUCUCAGGUCUCCCAGCUCUCCCCUGCAGCAGCAACAGGUGCUCCGUAUCCUUCACGCCAACCCCCAGCUGUUGGCUGCAUUCAUCAAGCAGCGGGCUGCCAAGCAACAGAGGAUUGAGCAUCA
B22: chr1:179105649:179105771:-|3pUTR|ENSG00000143322|msi1|total|mutant (ssRNA)
RNA: GGGAGUUCUACAGUCCGACGAUCAGAAAGGAAACCUUGAUUCUUACCAUUGCUGCUCCAAAGGAGGCCCAGGUUAAGAGGAUCCGAGGAGACACGCGGUGCUGGGCAUUCCUGGCAGGUGUUGGGUGAUCCCCGCAGUAUGUCCAACAGAGGAUUGAGCAUCA

Target: MSI1 full-length (mouse, UniProt Q61474 1-362)
Assay: nsRBNS (natural sequence RNA bind-n-seq); RBNS binding buffer (assumed for nsRBNS): 25 mM Tris pH 7.5, 150 mM KCl, 3 mM MgCl2, 0.01% Triton X-100, 500 ug/ml BSA, 20 U/ml SUPERase-In, 4 C; UNK is unkempt and MSI1 is Musashi-1; names of the RNAs are library labels; protein concentration not given here; high values mean tight binding

Sequence of UniProt Q61474 (Q61474 whole entry): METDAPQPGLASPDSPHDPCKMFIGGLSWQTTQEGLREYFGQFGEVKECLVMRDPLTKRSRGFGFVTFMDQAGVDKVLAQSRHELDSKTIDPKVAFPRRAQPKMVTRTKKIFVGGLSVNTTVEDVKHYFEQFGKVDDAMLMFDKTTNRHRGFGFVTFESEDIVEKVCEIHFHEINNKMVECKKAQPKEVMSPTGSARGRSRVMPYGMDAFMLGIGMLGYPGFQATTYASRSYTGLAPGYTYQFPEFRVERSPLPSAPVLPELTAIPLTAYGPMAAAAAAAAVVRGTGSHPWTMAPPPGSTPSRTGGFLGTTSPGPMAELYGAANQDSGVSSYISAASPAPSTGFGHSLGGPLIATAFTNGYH

| Binder | binding signal [enrichment R] |
| --- | --- |
| B1 | 0.71 |
| B2 | 0.386 |
| B3 | 1.78 |
| B4 | 0.562 |
| B5 | 2.1 |
| B6 | 0.393 |
| B7 | 0.47 |
| B8 | 0.546 |
| B9 | 0.602 |
| B10 | 1.93 |
| B11 | 0.284 |
| B12 | 0.394 |
| B13 | 2.15 |
| B14 | 0.58 |
| B15 | 0.33 |
| B16 | 0.335 |
| B17 | 1.01 |
| B18 | 0.53 |
| B19 | 0.689 |
| B20 | 6 |
| B21 | 0.625 |
| B22 | 0.43 |
